First the molecules themselves.
T1: UNK ZnF1-3 (human, UniProt Q9C0B0 31-174)
T1 sequence: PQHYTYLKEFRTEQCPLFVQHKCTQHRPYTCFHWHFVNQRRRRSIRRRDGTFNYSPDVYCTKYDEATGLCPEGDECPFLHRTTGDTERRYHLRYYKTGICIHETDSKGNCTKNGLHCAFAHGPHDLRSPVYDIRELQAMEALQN

B1: chr7:7679991:7679992:-_ENSG00000106399_ENST00000396682|hu_hu|hu_hu_hu_mus_False|68_78 (ssRNA)
RNA: GGGAGUUCUACAGUCCGACGAUCUGGGAUGAAUCUUUUCCAGCUUCCCCACGAAGCAGACAGGCUUGUCGAUGAAUUGUGGUAACAUGCUGGCGUUGACGCGCGCUUUGGGGAGCUGCAUUAUGUCCUCCAUGAUUCUGCCGCCAACAGAGGAUUGAGCAUCA
B2: chr5:128440902:128440903:+_ENSG00000066583_ENST00000173527|hu_mus|hu_hu_hu_mus_True|8_58 (ssRNA)
RNA: GGGAGUUCUACAGUCCGACGAUCUUGAACGGUGCUGCCAAGUCCUUUGGGGUAUUGUUCCGUUAUGAUAACUGGAAUUCCUAAAAUCCGAGCUCCUUGCAACAGUCUCUGUCCCACACUAAUGAUGUCCCCAAAAUAUUUGAUCAACAGAGGAUUGAGCAUCA
B3: chr2:202488911:202488912:-_ENSG00000155755_ENST00000286196|hu_mus|hu_hu_hu_mus_False|8_78 (ssRNA)
RNA: GGGAGUUCUACAGUCCGACGAUCAUUGAAACAUUUUUCAUAAUCUCCAGUAGCAUUCAGUAUUAUAGUAACAAAAGCUCAAUUGUAAAUACAUGUAUCUUAUAAAAAUACACUUAAAAACACGAGUAAAAAUGGGAGGCGCCACAACAGAGGAUUGAGCAUCA
B4: 107884013_107888248_129_3pUTR_ENSMUSG00000027889_ENSMUST00000078912|mouse|control|control (ssRNA)
RNA: GGGAGUUCUACAGUCCGACGAUCACUGUAGCGGAGAGGCCCCCAGACCGCUUCGAGCUUCUGGAGCGGCAGCGGAAGCUUGCAGGCCGGCCCGCUUCUUAAAGGGAUAUUUGGCCUUGGACUUGCCUGGGCCAGGAUAGGAUGCAACAGAGGAUUGAGCAUCA
B5: 120328023_120328557_91_ncRNA_ENSMUSG00000057594_ENSMUST00000124970|mouse|control|control (ssRNA)
RNA: GGGAGUUCUACAGUCCGACGAUCCGAGCUCUCGGAUGGUGAUCUUCCUGUGGGCCACAAUGUCUGUAAGGUUGGUGCCCACCGUGGGCCGCGUCGGUGGGGGCUCUCCCAGGUCGCCUUUGCCAUCUCCGGAGCUCAGCUGUCCAACAGAGGAUUGAGCAUCA
B6: chr5:44151052:44151053:-_ENSMUSG00000039753_ENSMUST00000047857|mus_hu|FALSE|FALSE (ssRNA)
RNA: GGGAGUUCUACAGUCCGACGAUCGUCAGUCUGGGUAAGAUCCAGAUGCUCCAGGUUAGGACAAAGCUCUAAAAUCUGCCUAACCAUUUUGCUGGAAACUGCAGAGCUGUAUGCUAAUACUAAGGUUUUUACAGAAGUACCAACCAACAGAGGAUUGAGCAUCA

The list shows a part of the results.

The target of this experiment is T1, UNK ZnF1-3. The experiment can be described thus: nsRBNS (natural sequence RNA bind-n-seq); RBNS binding buffer (assumed for nsRBNS): 25 mM Tris pH 7.5, 150 mM KCl, 3 mM MgCl2, 0.01% Triton X-100, 500 ug/ml BSA, 20 U/ml SUPERase-In, 4 C; UNK is unkempt and MSI1 is Musashi-1; names of the RNAs are library labels; protein concentration not given here; high values mean tight binding.
The molecule B1 gave a binding signal of 0.618 enrichment R.

For B2, the binding signal is 0.967 enrichment R.

B3 displayed a binding signal of 1.28 enrichment R.

In turn, B4 came in with a binding signal of 0.824 enrichment R.

B5: the binding signal worked out at 0.72 enrichment R.

Regarding B6, the binding signal came to 1.17 enrichment R.

The values are drawn from article PMC12136788.
